Paper PMC4336329 (PLoS ONE, 2015)
The whole screen tested about 310,000 compounds, of which about 14,000 (4.5%) showed an effect of 50% or more. The effect is printed as a negative number. This is one part of the list.

The molecules below were run against human ether-à-go-go-related gene (hERG) potassium channel (human, UniProt Q12809) (assay: primary screen, population patch clamp on CHO cells stably expressing hERG).
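Note: peak tail current of the secondary pulse compared with the same well before compound.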

human ether-à-go-go-related gene (hERG) potassium channel, sequence (Q12809 whole entry, looked up): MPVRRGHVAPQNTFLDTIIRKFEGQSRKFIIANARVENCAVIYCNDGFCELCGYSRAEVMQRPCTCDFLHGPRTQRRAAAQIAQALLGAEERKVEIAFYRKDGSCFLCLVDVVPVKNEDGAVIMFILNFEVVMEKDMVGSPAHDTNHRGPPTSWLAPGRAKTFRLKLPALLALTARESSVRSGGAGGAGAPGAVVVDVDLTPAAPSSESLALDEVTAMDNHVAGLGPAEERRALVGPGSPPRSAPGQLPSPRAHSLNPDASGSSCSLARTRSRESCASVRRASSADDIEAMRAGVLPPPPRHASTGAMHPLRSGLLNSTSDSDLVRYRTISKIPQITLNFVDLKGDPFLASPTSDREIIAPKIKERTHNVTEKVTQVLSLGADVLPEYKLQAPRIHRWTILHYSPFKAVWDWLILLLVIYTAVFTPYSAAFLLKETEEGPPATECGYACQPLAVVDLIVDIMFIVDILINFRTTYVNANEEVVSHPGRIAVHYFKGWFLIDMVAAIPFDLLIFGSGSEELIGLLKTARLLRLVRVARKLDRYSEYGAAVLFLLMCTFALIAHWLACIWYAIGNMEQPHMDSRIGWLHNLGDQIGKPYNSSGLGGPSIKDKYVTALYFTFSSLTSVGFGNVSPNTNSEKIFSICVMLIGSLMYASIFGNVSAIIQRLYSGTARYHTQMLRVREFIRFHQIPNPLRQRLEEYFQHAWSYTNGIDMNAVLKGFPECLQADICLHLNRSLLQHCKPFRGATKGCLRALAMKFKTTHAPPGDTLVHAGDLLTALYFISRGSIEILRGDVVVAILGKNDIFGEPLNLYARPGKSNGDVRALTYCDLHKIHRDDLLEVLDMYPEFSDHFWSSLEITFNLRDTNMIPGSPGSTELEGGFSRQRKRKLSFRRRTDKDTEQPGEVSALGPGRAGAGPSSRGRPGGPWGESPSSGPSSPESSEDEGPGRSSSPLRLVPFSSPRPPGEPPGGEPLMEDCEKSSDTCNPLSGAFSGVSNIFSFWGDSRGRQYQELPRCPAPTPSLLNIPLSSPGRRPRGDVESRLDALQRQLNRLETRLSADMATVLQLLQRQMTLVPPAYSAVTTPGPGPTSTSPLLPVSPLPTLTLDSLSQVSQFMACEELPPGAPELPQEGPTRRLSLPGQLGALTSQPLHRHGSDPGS

SMILES	hERG current change (%, negative = inhibition) at 10uM
NS(=O)(=O)c1cc(C(=O)NC2CCSc3ccccc32)ccc1Cl (stereo not shown)	7.27%
CCOc1ccccc1N/C=C/C(=O)C(C)(C)C	-7.16%
Cc1ccccc1OCCNC(=O)/C=C/c1ccc([N+](=O)[O-])cc1	-32.3%
O=c1cc(CO)oc(C(Nc2ccccn2)c2ccc(F)cc2)c1O (stereo not shown)	9.87%
CCS(=O)(=O)Nc1cccc(C2=NN(S(=O)(=O)c3ccccc3)C(c3ccco3)C2)c1 (stereo not shown)	-3.79%
COc1cccc(-c2cc(C(F)(F)F)nc(N3CCC(C)CC3)n2)c1	6.69%
CC(C)CCC[C@@H](C)[C@H]1CC[C@H]2[C@@H]3C(=O)C=C4C[C@@H](O)CC[C@]4(C)[C@H]3CC[C@]12C	12.5%
COc1ccc(N2C(=O)CCC(C(=O)O)C2c2ccc(OC)c(OC)c2)cc1 (stereo not shown)	2.55%
COc1cccc(OCC(O)CN2CCN(c3ccc(Cl)cc3)CC2)c1 (stereo not shown)	-71.9%
CC(=O)c1cc(CN2CCN(CCc3ccccc3)C(CCO)C2)cs1 (stereo not shown)	-54.4%
O=C(O)c1ccccc1NSc1ccccc1[N+](=O)[O-]	7.35%
COc1ccc(/C=N/Nc2nonc2N)cc1	-12.3%
Cc1ccc(/C=C2/NC(=O)N(Cc3ccccc3)C2=O)o1	-3.16%
COc1ccc(CCNC(=O)CSc2nc(=O)n3cccc(C)c3n2)cc1OC	15.8%
COc1ccc2[nH]c(C(=O)N3CCC(CO)(Cc4cccc(C(F)(F)F)c4)CC3)c(C)c2c1	7.98%
O=C(O)C12C[C@H]3C[C@@H](C1)CC(n1ncc(N4CCN(c5ccccc5)CC4)c(Cl)c1=O)(C3)C2	9.94%
Cc1ccc(C(=O)N2CC(=O)Nc3ccccc32)o1	6.06%
CCOC(=O)c1ccc(NC(=O)COC(=O)c2cccc(Oc3ccccc3)c2)cc1	4.33%
CCC(C)Sc1cccc(-c2nc3ccc(C)cn3c2NCc2ccccc2)c1.O=C(O)C(F)(F)F (stereo not shown)	7.31%
C=CCn1c(SCC(=O)NC2CCS(=O)(=O)C2)nc2scc(C3CC3)c2c1=O (stereo not shown)	-33.6%
Cc1ccc(CNC(=O)CCC(=O)N2CC(C)Sc3ccccc32)cc1 (stereo not shown)	-20.6%
CCOc1ccccc1Cn1c(=O)oc2ccc(C)cc21	11.1%

SMILES	hERG current change (%, negative = inhibition) at 10uM
CC1CCCC(NC(=O)CCS(=O)(=O)c2ccc3c(c2)NC(=O)CS3)C1C (stereo not shown)	-31.5%
Cc1nc(N[C@@H](Cc2c[nH]c3ccccc23)C(=O)O)c2oc3ccccc3c2n1	5.9%
O=C(NCCOc1ccccc1F)C1CC(=O)N(c2ccc3c(c2)OCCO3)C1 (stereo not shown)	-0.91%
Cc1ccc(Cl)cc1NC(=O)Cn1cc(C(F)(F)F)cc(Cl)c1=O	-2.05%
O=C(NC(Cc1c[nH]c2ccccc12)C(=O)O)c1ccc(F)cc1 (stereo not shown)	17.7%
Cc1cc(NC(=O)c2ccc(C)s2)n(-c2ccccc2)n1	6.92%
COC(=O)[C@@H]1CCCN1Cc1nc(Cc2ccccc2F)no1	2.65%
COc1cccc(CNC(=O)c2nnn(CC(=O)Nc3cc(C)ccc3C)c2N)c1	24.8%
CCOC(=O)N1CCN(c2cc(=O)n(-c3ccc(C)cc3)c(=O)[nH]2)CC1	-25.8%
CC(OC(=O)CCN1C(=O)C2CC=CCC2C1=O)C(=O)c1ccc(F)cc1 (stereo not shown)	-16.4%
COc1ccc(CCNC(=S)NC(=O)/C=C/c2ccc(C)cc2)cc1OC	0.564%
Cc1ccc(N(C)S(=O)(=O)c2cccc(C(=O)Nc3ccc(C)cn3)c2)cc1	-14.3%
O=C(Nc1cccc(Cl)c1)N1CCN(C/C=C/c2ccccc2)CC1	-68.5%
CCOC(=O)c1c(C)n(CCN2CCN(C)CC2)c2ccc(OC)cc12.Cl	-20.2%
O=c1c(-c2ccccc2)c(O)c2cccc3c2n1CCC3	-0.968%
CS(=O)(=O)N(CC(=O)N1CCOCC1)c1cccc(Cl)c1Cl	6.91%
CC(C)OC(=O)c1c(N)n(CC2CCCO2)c2nc3ccccc3nc12 (stereo not shown)	-29.3%
Cc1ccc(OCCC(=O)OCC(=O)Nc2ccc3c(c2)OCO3)cc1	13.5%
Cc1ccc(C(=O)Nc2scc(-c3ccccc3)c2C(=O)O)cc1	8.07%
O=C(Nc1cc(=O)c2ccccc2o1)N1CCOCC1	-2.22%
Fc1cc(F)cc(NC(=S)NCCCN2CCOCC2)c1	-13.2%
Cc1ccsc1C(=O)Nc1ccc2c(c1)OCCO2	14.7%

SMILES	hERG current change (%, negative = inhibition) at 10uM
O=C(COC(=O)C1CCCCC1)Nc1ccc([N+](=O)[O-])cc1	0.687%
CN(c1ccccc1C(=O)Nc1cccc(Br)c1)S(=O)(=O)c1ccccc1	-5.01%
CCN(C(=O)CSc1nnc(-c2cccs2)o1)C1CCS(=O)(=O)C1 (stereo not shown)	7.74%
O=C(CN1CCC(NC(=O)Nc2ccc(F)cc2)CC1)Nc1ccccc1[N+](=O)[O-]	-51%
Cc1cccc2cc(C(c3nnnn3CC3CCCO3)N3CCCc4ccccc43)c(=O)[nH]c12 (stereo not shown)	-8.01%
C#CCOCCOCCOCCNc1nc(N2CCN(C(=O)[C@H](CCC(=O)O)n3cc(C(N)CC(C)C)nn3)CC2)nc(N2CCN(C(=O)[C@H](Cc3cc4ccccc4[nH]3)n3cc(C(N)[C@H](C)CC)nn3)CC2)n1.Cl (stereo partly shown)	18.9%
Cl.O=C1CSC2(CN3CCC2CC3)N1 (stereo not shown)	11.8%
C=CCNC1=C(Cl)C(=O)N(c2cccc(Cl)c2Cl)C1=O	-13.3%
CN1C(=O)[C@H]2[C@@H](/C=C/c3ccccc3)N3C(=O)CN(CCO)C(=O)[C@@]3(C)[C@H]2C1=O	2.2%
C/C(=N/NC(=O)c1ccncc1)c1ccc(NC(=O)c2ccccc2)cc1	7.92%
CCCCCC(=O)NNC(=O)Cc1ccc([N+](=O)[O-])cc1	-1.38%
CCN1C(=O)CC(N2CCN(c3cccc(OC)c3)CC2)C1=O (stereo not shown)	14.1%
CCC1(C)Cc2ccccc2-c2nc(NCCCO)[nH]c(=O)c21 (stereo not shown)	-10.1%
CCCN(Cc1ccc(N(C)C)cc1)CC1CC1	-16.2%
CN1CCN(C(=O)C2CCCN(S(=O)(=O)c3ccc(Br)cc3)C2)CC1 (stereo not shown)	-5.87%
Cc1nc2ccccc2c2oc(C(=O)N3CCN(C(=O)c4ccco4)CC3)cc12	-46.7%
CCc1ccc(C(=O)CN(C#N)c2nc(C)cc(C)n2)cc1	-75.6%
CCCCc1nnc(NC(=O)CSCc2cc(=O)n3c(C)csc3n2)s1	4.61%
CCC(C(=O)NC1CCCC1)N(Cc1ccco1)C(=O)CNS(=O)(=O)c1ccccc1 (stereo not shown)	12.4%
CC(C)(C)c1ccc(NC(=O)COC(=O)CCN2C(=O)c3cccc([N+](=O)[O-])c3C2=O)cc1	-4.35%
CCO[C@@H]1OC(C(=O)N2CCCCCCC2)=C[C@H](c2csc3ccccc23)[C@H]1CCCO	-23.6%
CCC(=O)Nc1cccc(C(=O)/C=C/c2cc(Br)ccc2OC)c1	-17.2%

SMILES	hERG current change (%, negative = inhibition) at 10uM
COc1ccc2[nH]cc(C=O)c2c1	17.7%
COc1cccc(C(=O)Nc2cccc(SC)c2)c1	-21.5%
S=C(Nc1ccc2nsnc2c1)NC1CCCCC1	-6.44%
CN(C)C(=O)Oc1cccc(NC(=O)N2CCOCC2)c1	5.15%
O=C(COC(=O)C1CCN(S(=O)(=O)c2ccc3c(c2)OCCO3)CC1)Nc1ccc(C(F)(F)F)cc1	-0.0388%
CCN(CC)c1ccc(CN2CCC(C(=O)NCc3ccc(C)cc3)CC2)cc1.O=C(O)C(=O)O	-65.3%
CCCCCOc1ccc(Cl)cc1CN1CCOCC1.Cl	-9.35%
COC(=O)CCCC1=CC2=C(c3ccccc3)C(=O)C(C)(OC(=O)C3CCCC3)C(=O)C2=CN1C1CCCC1 (stereo not shown)	-32.1%
Cc1ccccc1CSc1ncnc2ccccc12	-4.5%
CCc1nn(CC(=O)NC(C)CCc2ccccc2)c(=O)c2cc3cc(F)ccc3n12 (stereo not shown)	13%
Cc1nc(CC(=O)N/N=C/c2ccc(OCC(=O)O)cc2)cs1	9.98%
CNC(=S)N(C)[C@H]1c2c(ccc3ccccc23)OC[C@H]1CO	9.85%
COc1cccc(C(=O)NC(C)c2ccc(Br)cc2)c1 (stereo not shown)	-11.9%
Cc1cc(Nc2ccc(F)cc2C)n2ncnc2n1	-4.78%
COc1ccc(S(=O)(=O)N2CCN(c3ccc4nnc(-c5ccc(F)cc5)n4n3)CC2)cc1	-19.4%
O=C(CCCNS(=O)(=O)c1cccs1)N1CCN(c2ccc(F)cc2)CC1	-43.2%
CCOC(=O)CCc1c(C)c(C#N)c2nc3ccccc3n2c1-n1ccnc1	-31.1%
CC1CCC(NC(=O)c2ccc(COc3ccccc3)o2)CC1 (stereo not shown)	7.02%
Cc1nc2cc(C(=O)OCC(=O)Nc3cccc(Cl)c3)ccc2n1-c1ccccc1	-13.6%
